Test results from PubChem BioAssay AID1468 (National Center for Advancing Translational Sciences (NCATS), 2008).
“And” between values parts separate entries of the source, which are not always exact repeats. Identical values can stand only once. Out of some 280,000 compounds screened, about 1,100 (0.39%) were called active. The shares of active, inactive and inconclusive entries below differ from those in the screen. Calls follow the shape of the dose curve; as a rule, active = well fitted inhibition curve with a large enough effect; inconclusive = small, poorly fitted or top-dose-only effect, or effect the other way; inactive = flat fitted curve, though single readings scatter. A potency beside an inconclusive call is a rough fit, not a confirmed value.
% is scaled to controls: 0 for no effect and ±100 for the full control effect; potency is read from the fitted curve at half-maximal effect; tags tell the direction and shape of the fitted curve.
Also: nearly all actives have a fitted effect of over 55% in size.

Each compound was assayed against Microtubule-associated protein tau (Homo sapiens) (UniProt P10636) (assay: qHTS for Inhibitors of Tau Fibril Formation, Fluorescence Polarization). Details: K18 P301L tau heparin fibrillization, Alexa594 FP, 6 h; series mostly up to 57.7 µM; activity, negative = inhibition: at the top concentration.
Sequence of UniProt P10636 (P10636 whole entry, looked up, the tested form may be a part): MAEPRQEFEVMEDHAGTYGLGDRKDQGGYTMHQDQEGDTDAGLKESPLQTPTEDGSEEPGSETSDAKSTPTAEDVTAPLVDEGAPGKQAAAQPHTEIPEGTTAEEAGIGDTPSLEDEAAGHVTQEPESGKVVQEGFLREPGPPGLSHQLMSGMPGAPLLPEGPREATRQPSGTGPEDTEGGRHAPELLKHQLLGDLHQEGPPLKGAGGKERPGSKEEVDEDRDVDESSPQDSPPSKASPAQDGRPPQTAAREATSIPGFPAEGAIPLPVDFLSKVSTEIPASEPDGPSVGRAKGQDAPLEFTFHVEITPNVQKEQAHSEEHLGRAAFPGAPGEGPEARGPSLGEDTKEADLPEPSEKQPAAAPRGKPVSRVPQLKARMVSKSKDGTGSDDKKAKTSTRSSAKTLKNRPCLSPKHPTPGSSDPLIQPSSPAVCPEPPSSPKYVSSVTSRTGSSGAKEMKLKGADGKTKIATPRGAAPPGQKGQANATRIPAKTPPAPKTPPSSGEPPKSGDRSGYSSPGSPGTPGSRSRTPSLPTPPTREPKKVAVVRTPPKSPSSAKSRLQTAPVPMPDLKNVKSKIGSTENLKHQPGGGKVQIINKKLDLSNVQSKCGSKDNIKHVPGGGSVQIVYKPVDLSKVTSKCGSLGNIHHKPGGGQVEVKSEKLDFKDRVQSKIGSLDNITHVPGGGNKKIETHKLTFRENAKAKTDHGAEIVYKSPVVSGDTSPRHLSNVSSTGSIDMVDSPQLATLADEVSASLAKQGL
Method in brief: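 Human tau K18 […] P301L fragment, 15 uM unlabeled plus 0.24 uM Alexa 594-labeled tau (final), with compound and 20 uM heparin in 100 mM sodium acetate pH 7; 6 hr at 37 C, then Alexa 594 FP read.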
For `O=C(CCN1C(=O)c2ccccc2C1=O)Nc1ccc(-c2nc3ccccc3s2)cc1`, the Potency was inconclusive: 35.5 µM [inhibitor, single point].
With `COc1ccc2nc(-c3ccco3)c(-c3ccco3)nc2c1` the Potency was inconclusive: 12.6 µM [inhibitor, partial curve].
For `Cc1cc(NS(=O)(=O)c2ccc(Nc3nc(-c4sc(N)nc4C)cs3)cc2)no1`, the Potency was inconclusive: 15.8 µM [inhibitor, partial curve, poor fit].
For `CCOc1ccc2nc(SCC(=O)Nc3ccc(F)cc3)nc(-c3ccccc3)c2c1`, the Potency was inconclusive: 17.8 µM [inhibitor, partial curve, poor fit].
For `CCCN(CCC)CCCNC(=O)C1CCCN(Cc2nc(-c3ccc(Cl)cc3)oc2C)C1` (stereo not given), the “activity, negative = inhibition” value was inactive: -1.64%.
For `COc1ccccc1C1CCN(c2cc(O)ccc2[N+](=O)[O-])CC1`, the Potency was inconclusive: 25.1 µM [inhibitor, single point].
In the case of `CCCn1c(CCC(=O)Nc2cc(OC)cc(OC)c2)nc2cccnc21`, the “activity, negative = inhibition” value is reported as inactive: -2.85%.
In the case of `COC(=O)c1scc(-c2ccc(C)cc2)c1S(=O)(=O)Nc1cc(Cl)c(OC)cc1OC`, the Potency is reported as inconclusive: 28.2 µM [inhibitor, single point].
With `CCOc1ccccc1-c1nc(-c2ccc(NC(=O)Cc3ccc(OC)cc3)cc2)no1` the Potency was inconclusive: 2 µM [inhibitor, full curve, poor fit].
With `CCSc1ncc(Cl)c(C(=O)Nc2nc3ccc(S(C)(=O)=O)cc3s2)n1` the “activity, negative = inhibition” value was inactive: -7.3%.
`COc1cc(/C=N/NC(=O)CC23CC4CC(CC(C4)C2)C3)cc(Br)c1OCC(=O)N(C)C` was tested, and the “activity, negative = inhibition” value was inactive: 4.66%.
With `Cc1cc(C)cc(NC(=O)Nc2cc(-c3ccccc3)nn2C)c1` the Potency was inconclusive: 35.5 µM [inhibitor, single point].
`COc1ccc(C(=O)NCC(c2ccco2)S(=O)(=O)c2ccc(F)cc2)cc1` (stereo not given) was tested, and the Potency was inconclusive: 39.8 µM [inhibitor, single point].
With `Cc1nn(-c2ccccc2)c2nc(N)c(C#N)c(-c3ccc(C(C)(C)C)cc3)c12` the Potency was inconclusive: 14.1 µM [inhibitor, partial curve].
`Cn1c(=O)c(C(=O)Nc2ccccn2)c(O)c2ccccc21` was tested, and the Potency was inconclusive: 39.8 µM [activator, single point].
In the case of `CCOC(=O)c1ccc(N2C(=O)c3[nH]nc(-c4ccc(C)cc4)c3C2c2cccs2)cc1` (stereo not given), the Potency is reported as inconclusive: 31.6 µM [inhibitor, partial curve].
For `N=c1scc(-c2ccccc2)n1/N=C/c1ccco1`, the Potency was inconclusive: 1.12 µM [activator, single point].
`O=C(c1ccc(F)cc1)n1ccc(-c2cnc(-c3ccccc3)s2)n1` was tested, and the Potency was inconclusive: 39.8 µM [inhibitor, single point].
For `CCN(CC)CCN1C(=O)C(=O)/C(=C(/O)c2ccc(F)cc2)C1c1cccnc1` (stereo not given), the Potency was inconclusive: 31.6 µM [inhibitor, single point].
For `CC1Cc2ccccc2N1C(=O)CSc1nc2ccc(NC(=O)COc3ccccc3)cc2s1` (stereo not given), the Potency was inconclusive: 12.6 µM [inhibitor, partial curve].
`N#Cc1c(C(F)(F)F)cc(-c2cccs2)nc1SCc1ccc(F)cc1` was tested, and the Potency was inconclusive: 0.141 µM [inhibitor, full curve, poor fit].
With `O=C(Oc1ccccc1C(=O)N1CCOCC1)c1ccc(Br)cc1` the Potency was inconclusive: 17.8 µM [inhibitor, partial curve, poor fit].
With `CCOC(=O)C(C)(C)N(Cc1ccccc1C)S(=O)(=O)c1ccc(Cl)c([N+](=O)[O-])c1` the “activity, negative = inhibition” value was inactive: 2.53%.
`COC(=O)c1cc(NC(=O)c2cc(-c3ccc(OC)cc3)oc2C(F)(F)F)ccc1N1CCOCC1` was tested, and the Potency was inconclusive: 15.8 µM [activator, partial curve, poor fit].
For `CC(C)Cn1c(N)c(C(=O)COC(=O)c2cc(C(F)(F)F)nc3ccccc23)c(=O)n(C)c1=O`, the Potency was inconclusive: 1.78 µM [inhibitor, partial curve, poor fit] and inconclusive: 398 nM [inhibitor, partial curve, poor fit].
For `CCc1cccc(C)c1NC(=O)Cn1nc(C)n2cccc2c1=O`, the Potency was inconclusive: 25.1 µM [inhibitor, single point].
For `Cc1ccc2cc(/C=N/NC(=O)c3ccccc3O)c(Cl)nc2c1`, the “activity, negative = inhibition” value was inactive: -7.84%.
For `COC(=O)c1cc2oc(C)cc2n1CC(=O)Nc1ccc(C(C)C)cc1`, the “activity, negative = inhibition” value was inactive: 0.99%.
In the case of `COCC(C)NC(=O)CCS(=O)(=O)c1nc(-c2ccc(OC)cc2)cc(C(F)(F)F)n1` (stereo not given), the Potency is reported as inconclusive: 8.91 µM [inhibitor, single point].
With `CCOc1cccc2sc(NN)nc12` the Potency was inconclusive: 25.1 µM [inhibitor, single point].
`CCn1cc([N+](=O)[O-])c(C(=O)N2N=C(c3cccc4ccccc34)CC2c2ccccc2O)n1` (stereo not given) was tested, and the Potency was inconclusive: 44.7 µM [inhibitor, single point].
With `O=c1c(=O)n(-c2ccc(F)c(F)c2)ccn1Cc1ccc(F)cc1Cl` the Potency was inconclusive: 7.94 µM [inhibitor, partial curve].
For `COc1ccc(C(=O)Nc2cccc(-c3nnc(-c4ccco4)o3)c2)cc1`, the Potency was inconclusive: 44.7 µM [inhibitor, single point].
In the case of `Cc1ccc(C)c(N2CCN(C(=S)Nc3ccc4nc(N5CCOCC5)cc(C)c4c3)CC2)c1`, the Potency is reported as inconclusive: 3.16 µM [activator, single point].
For `COc1ccc(C(NC(=O)/C=C/c2ccco2)c2ccc(OC)c(OC)c2)cc1OC`, the Potency was inconclusive: 39.8 µM [inhibitor, single point].
`CC(C)[C@H](NC(=O)c1ccccc1)C(=O)N1CCc2ccccc21` was tested, and the Potency was inconclusive: 10 µM [inhibitor, partial curve].
In the case of `CCCCn1c(=O)n(-c2cc(OC)ccc2OC)c(=O)c2c3c(sc21)CN(C(C)=O)CC3`, the “activity, negative = inhibition” value is reported as inactive: -0.167%.
With `Clc1cccc(CSc2nnc(-c3c[nH]c4ccccc34)o2)c1` the Potency was inconclusive: 8.91 µM [inhibitor, partial curve].
With `CCOC(=O)c1c(C2COc3ccccc3O2)csc1NC(=O)c1ccco1` (stereo not given) the Potency was inconclusive: 25.1 µM [inhibitor, partial curve].
In the case of `CCc1cc2ccc(C)cc2nc1SCC(=O)NNC(=O)c1ccco1`, the “activity, negative = inhibition” value is reported as inactive: -5.96%.
In the case of `CCn1c(SCC(=O)N/N=C/c2c[nH]c3ccccc23)nnc1-c1ccc(C)cc1`, the “activity, negative = inhibition” value is reported as inactive: 15.7%.
With `CCc1c(C)sc(NC(=O)C2CCCCC2C(=O)O)c1C(N)=O` (stereo not given) the Potency was inconclusive: 25.1 µM [inhibitor, single point].
For `O=C(N=Nc1c(O)[nH]c2ccc(Br)cc12)c1ccccc1-n1cccc1`, the Potency was inconclusive: 22.4 µM [inhibitor, single point].
In the case of `Cc1ccc(-c2cc3ncc4c(n3n2)-c2cc(F)ccc2OC4)cc1`, the “activity, negative = inhibition” value is reported as inactive: -4.77%.
For `CCc1ccc(C(=O)c2cn(CC(=O)Nc3cccc(OC)c3)c3cc4c(cc3c2=O)OCO4)cc1`, the Potency was inconclusive: 17.8 µM [inhibitor, partial curve].
For `COc1ccc(C(=O)c2c[nH]cc2-c2ccccc2)cc1`, the “activity, negative = inhibition” value was inactive: -7.29%.
`COc1ccc(-c2[nH]c3ccccc3c2SCCN)cc1` was tested, and the Potency was inconclusive: 15.8 µM [activator, partial curve].
For `Cc1nc(SCC(=O)NC(=O)NC2CCCCC2)nc(C)c1C`, the Potency was inconclusive: 2.51 µM [inhibitor, single point].
In the case of `COc1cccc(-c2nn(-c3ccccc3)cc2CN2CCCO2)c1`, the Potency is reported as inconclusive: 44.7 µM [inhibitor, single point].
`Cc1nn(CC(=O)Nc2ccc(OC(F)(F)F)cc2)c(=O)c2c(C)n(-c3ccc(Cl)cc3)nc12` was tested, and the “activity, negative = inhibition” value was inactive: -13.1%.
For `CCC(=O)Nc1ccc(C(=O)Cn2ncc(Cl)c(Cl)c2=O)cc1`, the Potency was inconclusive: 44.7 µM [inhibitor, single point].
In the case of `COc1ccccc1NC(=O)c1c(N=Cc2ccccc2O)cnn1C`, the Potency is reported as inconclusive: 11.2 µM [inhibitor, partial curve].
With `COc1ccc(-c2nc3ccccc3s2)cc1NC(=O)c1ccccc1F` the Potency was inconclusive: 4.47 µM [inhibitor, partial curve].
For `O=C(CSc1nc2ccccc2[nH]1)Nc1nc(-c2cccc(Br)c2)cs1`, the Potency was active: 14.1 µM.
With `COC(=O)C/C=C/[C@@H](C)[C@H](NC(=O)OCC(Cl)(Cl)Cl)c1ccc2ccccc2c1` the “activity, negative = inhibition” value was inactive: -7.39%.
For `COc1ccc(C(=O)Nc2ccc3nc(SCC(=O)N4CCc5ccccc54)sc3c2)cc1`, the Potency was inconclusive: 25.1 µM [inhibitor, single point].
For `Cc1ccc(S(=O)(=O)n2nc(-c3ccc(Cl)cc3)nc2NCc2ccc(F)cc2)cc1`, the Potency was inconclusive: 31.6 µM [inhibitor, single point].
In the case of `COc1ccc(Nc2oc(COc3ccc(OC)cc3)nc2C#N)cc1`, the “activity, negative = inhibition” value is reported as inactive: 3.57%.
`COc1ccc(CCNC(=O)CCCN2C(=O)c3ccccc3C2=O)cc1` was tested, and the “activity, negative = inhibition” value was inactive: -2.95%.
`COc1ccc(N2CCN(C(=O)/C=C/c3ccco3)CC2)cc1` was tested, and the Potency was inconclusive: 44.7 µM [inhibitor, single point].
For `O=S(=O)(NCCc1csc2nc(-c3ccccc3)nn12)c1cc(F)ccc1F`, the Potency was inconclusive: 22.4 µM [inhibitor, single point].
In the case of `COc1ccc(OC)c(C2CC(=O)Nc3c2c(=O)[nH]c2ncnn32)c1` (stereo not given), the Potency is reported as “inactive”.
For `O=C(Nc1nc2c(F)cc(F)cc2s1)c1ccccn1`, the “activity, negative = inhibition” value was inactive: 4%.
`Cc1ccc(C)c(N2CCN(S(=O)(=O)c3ccc4c(c3)C(C(C)C)C(=O)N4)CC2)c1` (stereo not given) was tested, and the Potency was inconclusive: 22.4 µM [inhibitor, single point].
With `CCN=c1scc(C)n1/N=C/c1ccc(O)c(O)c1O` the Potency was active: 22.4 µM.
